Data taken from PubChem BioAssay AID624417 (National Center for Advancing Translational Sciences (NCATS), 2012).
Hit rate of the full screen: of about 410,000 compounds, about 6,400 (1.6%) were called active. Inconclusive results, whose numbers are uncertain, are shown with a selection of clear calls. Calls come from the whole dose curve; as a rule, active = well fitted inhibition curve with a large enough effect; inconclusive = small, poorly fitted or top-dose-only effect; inactive = no such curve, though single readings can be large or run the other way. No potency is given beside an inconclusive call; the fits are too rough.

Molecular target: Glucagon-like peptide 1 receptor (Homo sapiens) (UniProt P43220)
Test: qHTS of GLP-1 Receptor Inverse Agonists (Inhibition Mode); note: nearly all actives have a fitted effect of over 55% in size
Details: HEK293 GLP-1R CRE-luciferase, luminescence, 24 h, GLP-1R form is constitutively active; activity change, negative = inhibition: at 38.3 µM (top of the series) unless noted
In short: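 Luminescence readout: a drop in cAMP-driven luciferase signal flags inverse agonism at a constitutively active GLP-1R stably expressed in HEK293. Compound exposure lasted 24 hr at 37 deg C, 5% CO2.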
% is set by controls: 0 for no effect and ±100 for the full control effect; potency is the fitted concentration of half-maximal effect; tags give direction and shape of the fitted curve.

Chain of UniProt P43220 (P43220 whole entry, looked up): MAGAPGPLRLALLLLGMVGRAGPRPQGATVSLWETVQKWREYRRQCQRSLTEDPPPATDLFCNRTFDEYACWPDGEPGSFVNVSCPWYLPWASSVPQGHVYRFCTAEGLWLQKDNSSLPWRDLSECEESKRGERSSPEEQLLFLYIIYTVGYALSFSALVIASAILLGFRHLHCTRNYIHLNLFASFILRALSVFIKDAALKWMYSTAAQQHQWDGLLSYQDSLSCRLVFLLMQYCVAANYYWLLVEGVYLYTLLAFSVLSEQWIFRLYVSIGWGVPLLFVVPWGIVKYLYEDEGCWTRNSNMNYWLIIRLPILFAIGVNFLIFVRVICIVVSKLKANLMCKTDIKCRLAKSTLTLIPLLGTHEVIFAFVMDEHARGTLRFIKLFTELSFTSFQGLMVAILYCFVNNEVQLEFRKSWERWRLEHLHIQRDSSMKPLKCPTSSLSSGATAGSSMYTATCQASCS

Structure (SMILES)	activity change, negative = inhibition	Potency
CN(Cc1ccccc1F)c1cc2c(c3c1ccn3C)C1CCC2C1 (stereo unspecified)	inactive: -14.4%	–
OCC1(CCOc2ccccc2)CCN(Cc2ccc3cccc(F)c3n2)CC1	–	inconclusive [inhibitor, single point]
COc1ccc(CN2CCN(C(C)C)C(CCO)C2)cc1Cn1cccn1 (stereo unspecified)	–	inconclusive [inhibitor, partial curve]
CCOc1ccc(CNCCCSc2nnnn2C)cc1OC	inactive: -24%	–
Cc1cccc(NC(=O)COc2ccccc2C(=O)NC(C)c2ccccc2)c1 (stereo unspecified)	–	inconclusive [inhibitor, partial curve, poor fit]
COc1cc(SC)ccc1C(=O)N(Cc1ccccc1)c1ccccc1	–	inconclusive [inhibitor, single point]
COc1cccc(/C=N/NC(=S)Nc2cccnc2)c1	–	inconclusive [inhibitor, full curve, poor fit]
Cc1ccc(Cl)cc1Nc1sc(C(=O)c2ccc(F)cc2)c(N)c1S(C)(=O)=O	inactive: -9.82%	–
O=C(CN(Cc1ccccc1Cl)C(=O)c1csnn1)NC1CCCC1	–	inconclusive [inhibitor, single point]
CNc1ncc(-c2nnnn2-c2ccccc2)c(-c2ccccc2)n1	–	inconclusive [inhibitor, partial curve, poor fit]
O=C(O)c1cccc2c1-c1ccc(Cl)cc1C2	inactive: 2.91%	–
CC(C)NC(=O)N(C)C[C@@H]1Oc2ccc(NC(=O)Nc3ccc(C(F)(F)F)cc3)cc2CC(=O)N([C@H](C)CO)C[C@@H]1C	–	inconclusive [inhibitor, single point]
O=C1NN(c2ccccc2)C(=O)C1=Cc1ccccc1O	–	inconclusive [inhibitor, partial curve, poor fit]
Cc1cccc(Nc2nc(-c3sc(C)nc3C)cs2)c1	–	inconclusive [inhibitor, single point]
O=c1[nH]c2ccc(S(=O)(=O)N3CCCCC3)cc2[nH]c1=O	–	inconclusive [inhibitor, single point]
COc1ccc([N+](=O)[O-])cc1NC(=O)CCN1CCN(C)CC1	inactive: 8.51%	–
Cc1ccc(NC(=O)CSCC(=O)NCc2cccc(C(F)(F)F)c2)cc1	–	inconclusive [inhibitor, partial curve, poor fit]
CC(C)(C)N(Cc1ccccc1)C(=O)COC(=O)c1ccccc1SCC(=O)N1CCCC1	–	inconclusive [inhibitor, partial curve, poor fit]
COc1ccccc1CCNC(=O)c1c(C)nn(CC(C)C)c1Cl	–	inconclusive [inhibitor, single point]
Cn1cnc([N+](=O)[O-])c1Sc1nc(N)nc2c1ncn2Cc1ccccc1	inactive: -22.8%	–
O=C(c1cc(-c2ccco2)nc2ccccc12)N1CCCC(C(F)(F)F)C1 (stereo unspecified)	inactive: -21%	–
CCCc1nc2c3ccccc3ccn2c1Cc1cccc(F)c1	–	inconclusive [inhibitor, single point]

Structure (SMILES)	activity change, negative = inhibition	Potency
COc1ccc(-c2ncncc2-c2ccc(Cl)cc2)c(O)c1	–	inconclusive [inhibitor, partial curve, poor fit]
COc1ccc(-n2cc(CNC3CCOCC3)c(-c3cccc(F)c3)n2)cc1	–	inconclusive [inhibitor, partial curve, poor fit]
C[C@@H](C(=O)Nc1ccc(SC(F)F)cc1)N1C(=O)C2CCCCC2C1=O (stereo partly specified)	–	inconclusive [inhibitor, single point]
CNC(=O)/C(C#N)=C/c1c(N(Cc2ccccc2)Cc2ccccc2)nc2ccccn2c1=O	inactive: -18.2%	–
CCN(CC)S(=O)(=O)c1ccc(O)c(NS(=O)(=O)c2ccccc2F)c1	inactive: -11.5%	–
CN1CCC2(CC1)N=C(c1ccc(F)cc1)C(=S)N2C(=O)c1ccc(C(C)(C)C)cc1	–	inconclusive [inhibitor, partial curve, poor fit]
CN(C)C(=O)c1cn(-c2ccccc2)nc1-c1cc2ccccc2o1	–	inconclusive [inhibitor, partial curve, poor fit]
N#Cc1ccc(OCC(=O)Nc2nc(-c3ccccn3)cs2)cc1	–	inconclusive [inhibitor, partial curve, poor fit]
NS(=O)(=O)c1ccc(N2N=C(c3ccccc3)CC2c2ccccc2)cc1 (stereo unspecified)	–	inconclusive [inhibitor, single point]
COc1ccccc1Nc1c2c(nc3ccc(NC(=O)c4ccc(OC)c(OC)c4)cc13)CCCC2	–	inconclusive [inhibitor, single point]
O=c1c2ccccc2nc(-c2cccs2)n1-c1cccc2ccccc12	–	inconclusive [inhibitor, partial curve, poor fit]
C/C(=N\NC(=O)c1ccccc1Cl)c1ccccn1	–	inconclusive [inhibitor, full curve, poor fit]
CCC(C)(C)C1CCc2nc3ccccc3c(C(=O)OC(C)C(=O)Nc3c(C)n(C)n(-c4ccccc4)c3=O)c2C1 (stereo unspecified)	–	inconclusive [inhibitor, full curve, poor fit]
c1coc(CNc2nc3ccccc3s2)c1	inactive: -1.51%	–
CCOC(=O)Cn1c(=O)n(CC2CCCO2)c2nc(-c3ccc(OCC)cc3)nc(C(N)=O)c21 (stereo unspecified)	inactive: -11.6%	–
COc1nc(NCc2ccco2)nc(NC2CCCCC2)n1	–	inconclusive [inhibitor, single point]
Cc1cc(Nc2cccc(Cl)c2)nc2ccc(NC(=O)Cc3ccc(Cl)cc3)cc12	–	active: 5.62 µM
CCCCN(C=O)c1c(CC)nc2c(OCc3ccccc3C(=O)OC)cccn12	inactive: -20.9%	–
CCCCCCCCN1C(=O)[C@H](CC(=O)NCCCN2CCCC2=O)C[C@@]2(C(=O)OCC)CCCC=C12	–	inconclusive [inhibitor, single point]
CC1(C)C(=O)N(c2ccccc2)C(=O)c2ccccc21	–	inconclusive [inhibitor, partial curve, poor fit]
COc1ccc(C(=O)N2CCC(C(=O)c3ccc(F)cc3)CC2)cc1	inactive: -25.9%	–
COc1cccc2c1OCC(CN1CCN(Cc3ccccc3)C(CCO)C1)=C2 (stereo unspecified)	–	inconclusive [inhibitor, single point]

Structure (SMILES)	activity change, negative = inhibition	Potency
CC1CCCCC12NC(=O)N(CC(=O)OCc1ccccc1Cl)C2=O (stereo unspecified)	–	inconclusive [inhibitor, single point]
CCn1nc(C)c(CCN(C)C(=O)Nc2ccc(C)c(Cl)c2)c1C	–	inconclusive [inhibitor, single point]
CCCN1CCN(CCCNC(=O)c2cc3c(=O)[nH]c4ccc(C)cc4c3s2)CC1	–	inconclusive [inhibitor, single point]
Cc1ccc(C(=O)NCc2ccc3c(c2)CCN3C(=O)c2ccc(C)cc2)cc1	inactive: -16.8%	–
COCCNC(=O)c1ccc(-n2c(-c3ccccc3)cc3c2CCC(C)C3)cc1 (stereo unspecified)	–	inconclusive [inhibitor, partial curve, poor fit]
CCCc1sc(N/N=C/c2ccccn2)nc1-c1ccc(F)cc1	–	inconclusive [inhibitor, partial curve, poor fit]
CCc1ccc(Cn2c(CNS(=O)(=O)c3ccc([N+](=O)[O-])cc3)nc3cccnc32)cc1	inactive: -5.71%	–
Cc1ccc(C(=O)Nc2ccc3ncccc3c2)cc1	–	inconclusive [inhibitor, full curve, poor fit]
COc1ccc(CNC(=O)C(C)N(Cc2ccccc2OC)C(=O)c2snc(C(N)=O)c2N)cc1 (stereo unspecified)	–	inconclusive [inhibitor, single point]
O=C(CCc1nc(-c2ccccc2F)no1)NCc1ccco1	inactive: 0%	–
CCN(C(=O)Cn1nc(Cc2ccncc2)c2ccccc2c1=O)c1cccc(Cl)c1	inactive: 2.32%	–
Cc1ccccc1-n1c(SCC(=O)c2cc(C)n(C)c2C)nnc1-c1cccnc1	–	inconclusive [inhibitor, partial curve, poor fit]
Cc1cccc(/C=C/c2nc3ccccc3c(=O)n2Cc2ccccc2)c1	–	inconclusive [inhibitor, partial curve]
Cc1cc(C)c(NC(=O)CCN2CCN(Cc3ccccc3)CC2)c(C)c1	–	inconclusive [inhibitor, full curve]
COc1ccccc1N(CC(=O)N1CCC(C)CC1)S(=O)(=O)c1ccc(C)cc1	inactive: 2.45%	–
O=C(c1cc(-c2cccc(Cl)c2)nc2ccccc12)N1CCN(c2ccccn2)CC1	–	inconclusive [inhibitor, partial curve, poor fit]
NNC(=O)Cn1c(-c2ccccc2)cc2ccccc21	–	inconclusive [inhibitor, single point]
COCCn1c(SCC(=O)Nc2ccc(S(N)(=O)=O)cc2)nc2ccccc21	inactive: -29.6%	–
CCOC(=O)[C@H]1[C@H]2COc3ccc(Br)cc3[C@H]2N2C(=O)CN(Cc3ccc(Cl)cc3)C(=O)[C@@]12C	–	inconclusive [inhibitor, single point]
CN(C)S(=O)(=O)Oc1ccsc1C(=O)Nc1ccc(C(F)(F)F)cc1	–	inconclusive [inhibitor, partial curve, poor fit]
CC(=O)N1CCN(S(=O)(=O)c2cccc(C(=O)OCc3ccc(C(C)(C)C)cc3)c2)CC1	–	inconclusive [inhibitor, single point]
Cc1nc(NS(=O)(=O)c2ccccc2)sc1NC(=O)Nc1ccccc1	–	inconclusive [inhibitor, partial curve]
